# Laboratory results taken from a collection of fitness landscapes (doi:10.1126/science.1257360).
# The other results are listed elsewhere or left out.
# B1: PhoQ; a variant is named by its letters at X, in order, P23837 (parent)
# chain: MKKLLRLFFPLSLRVRFLLATAAVVLVLSLAYGMVALIGYSVSFDKTTFRLLRGESNLFYTLAKWENNKLHVELPENIDKQSPTMTLIYDENGQLLWAQRDVPWLMKMIQPDWLKSNGFHEIEADVNDTSLLLSGDHSIQQQLQEVREDDDDAEMTHSVAVNVYPATSRMPKLTIVVVDTIPVELKSSYMVWSWFIYVLSANLLLVIPLLWVAAWWSLRPIEALAKEVRELEEHNRELLNPATTRELTSLVRNLNRLLKSERERYDKYRTTLTDLTHSLKTPLXXLQXXLRSLRSEKMSVSDAEPVMLEQISRISQQIGYYLHRASMRGGTLLSRELHPVAPLLDNLTSALNKVYQRKGVNISLDISPEISFVGEQNDFVEVMGNVLDNACKYCLEFVEISARQTDEHLYIVVEDDGPGIPLSKREVIFDRGQRVDTLRPGQGVGLAVAREITEQYEGKIVAGESMLGGARMEVIFGRQHSAPKDE
# Variants of: B1
# Assay: enrichment ratio after two sorts for PhoP signalling (ratio (wild type AVST 3.29)); higher = more functional
# Settings: with PhoP (E. coli)
row,Variant,enrichment ratio
1,YCQP,≤ 0.25
2,AVPC,≤ 0.25
3,NWVM,≤ 0.25
4,SQFM,0.495
5,HVRP,≤ 0.25
6,GPEW,≤ 0.25
7,GLTE,≤ 0.25
8,VMNQ,≤ 0.25
9,WMTP,≤ 0.25
10,HTVS,≤ 0.25
11,PWFM,≤ 0.25
12,GFKA,≤ 0.25
13,NFVD,≤ 0.25
14,AQFV,≤ 0.25
15,WPCF,≤ 0.25
16,LKHA,≤ 0.25
17,KGAD,≤ 0.25
18,SCWI,1.23
19,IPAY,≤ 0.25
20,RQPH,≤ 0.25
21,QLVR,≤ 0.25
22,THAY,5.94
23,QASF,2.77
24,PRFC,≤ 0.25
25,PVHI,≤ 0.25

row,Variant,enrichment ratio
1,ALVC,≤ 0.25
2,PDNR,≤ 0.25
3,GKFN,≤ 0.25
4,PHKA,≤ 0.25
5,HDMP,≤ 0.25
6,EGRE,≤ 0.25
7,QFMQ,≤ 0.25
8,HYFG,≤ 0.25
9,FVMT,≤ 0.25
10,DEVT,≤ 0.25
11,TCIH,≤ 0.25
12,QYQH,≤ 0.25
13,VNCG,0.455
14,NVWH,≤ 0.25
15,LFCH,≤ 0.25
16,EYVS,≤ 0.25
17,AGEE,≤ 0.25
18,YRVS,≤ 0.25
19,WRNL,≤ 0.25
20,RTHK,≤ 0.25
21,ATVM,6.8
22,LYHL,≤ 0.25
23,YNNC,0.618
24,HTLH,≤ 0.25
25,ICVP,≤ 0.25

row,Variant,enrichment ratio
1,YHMC,≤ 0.25
2,LNGL,≤ 0.25
3,MHRR,≤ 0.25
4,ALLY,≤ 0.25
5,HTPQ,≤ 0.25
6,DHCL,≤ 0.25
7,TQMA,12.7
8,SPAI,≤ 0.25
9,KCTE,≤ 0.25
10,EKLR,≤ 0.25
11,QNVM,≤ 0.25
12,ISET,≤ 0.25
13,GYAQ,≤ 0.25
14,DRHE,≤ 0.25
15,KCEP,≤ 0.25
16,HMTN,≤ 0.25
17,NYKN,≤ 0.25
18,YRDN,≤ 0.25
19,YTAF,≤ 0.25
20,EVHV,≤ 0.25
21,IFFD,≤ 0.25
22,ISWY,≤ 0.25
23,PEWH,≤ 0.25
24,MHCL,≤ 0.25
25,MRRK,≤ 0.25

row,Variant,enrichment ratio
1,LTAM,≤ 0.25
2,RHPR,≤ 0.25
3,NDVD,≤ 0.25
4,DWNI,≤ 0.25
5,WDSP,≤ 0.25
6,GTDD,≤ 0.25
7,LLSV,≤ 0.25
8,SHHK,≤ 0.25
9,TSFL,0.706
10,QNFM,≤ 0.25
11,MYKD,≤ 0.25
12,SKIV,4.99
13,AEAN,28.2
14,DMMG,≤ 0.25
15,IHRF,≤ 0.25
16,PEFG,≤ 0.25
17,ITEW,≤ 0.25
18,YMHK,≤ 0.25
19,LCDC,≤ 0.25
20,SMLQ,3.61
21,NNKV,≤ 0.25
22,YDFS,≤ 0.25
23,VVMW,≤ 0.25
24,HRVH,≤ 0.25
25,NLHD,≤ 0.25

row,Variant,enrichment ratio
1,VERE,≤ 0.25
2,MTQP,≤ 0.25
3,LNQP,≤ 0.25
4,EHSN,≤ 0.25
5,TIEA,≤ 0.25
6,FQMK,≤ 0.25
7,DPYQ,≤ 0.25
8,AQSF,11.9
9,HNAL,≤ 0.25
10,WCPC,≤ 0.25
11,VMIE,≤ 0.25
12,QIWK,≤ 0.25
13,DNVN,≤ 0.25
14,AIGC,5.62
15,MLRS,≤ 0.25
16,EKVA,≤ 0.25
17,ETGQ,≤ 0.25
18,KEEH,≤ 0.25
19,ACPM,0.39
20,NKWN,≤ 0.25
21,PPTC,≤ 0.25
22,WSSI,≤ 0.25
23,IYLE,≤ 0.25
24,WVML,≤ 0.25
25,NNYG,≤ 0.25

row,Variant,enrichment ratio
1,AVQY,≤ 0.25
2,TDMI,27.6
3,FSRH,≤ 0.25
4,RGVH,≤ 0.25
5,TFPE,≤ 0.25
6,QNHY,≤ 0.25
7,KMDS,≤ 0.25
8,TRDE,≤ 0.25
9,QNFW,≤ 0.25
10,ANFV,≤ 0.25
11,KEAG,≤ 0.25
12,ATEL,≤ 0.25
13,WHNG,≤ 0.25
14,HMLF,≤ 0.25
15,MWTC,≤ 0.25
16,TRIF,≤ 0.25
17,FDVY,≤ 0.25
18,YDDQ,≤ 0.25
19,HFRQ,≤ 0.25
20,MRSD,≤ 0.25
21,ERPI,≤ 0.25
22,HFRE,≤ 0.25
23,FGMH,≤ 0.25
24,KMFY,≤ 0.25
25,QTPR,≤ 0.25

row,Variant,enrichment ratio
1,KRDD,≤ 0.25
2,QPVF,≤ 0.25
3,FKTL,≤ 0.25
4,ICPD,≤ 0.25
5,FRLN,≤ 0.25
6,QQLC,≤ 0.25
7,RLQV,≤ 0.25
8,NRQF,≤ 0.25
9,LCYM,≤ 0.25
10,KVQS,≤ 0.25
11,AGVQ,10.8
12,TQLI,11.2
13,FKQR,≤ 0.25
14,MHAH,≤ 0.25
15,GIPS,≤ 0.25
16,PHRV,≤ 0.25
17,SLYI,≤ 0.25
18,DLEF,≤ 0.25
19,MLFV,≤ 0.25
20,QTTQ,≤ 0.25
21,VYAK,≤ 0.25
22,WIFG,≤ 0.25
23,QLCG,≤ 0.25
24,AWNG,≤ 0.25
25,EMGG,≤ 0.25

row,Variant,enrichment ratio
1,IDIP,≤ 0.25
2,SWVR,≤ 0.25
3,WDVE,≤ 0.25
4,FHYE,≤ 0.25
5,QRIG,≤ 0.25
6,QTLV,≤ 0.25
7,SDQG,≤ 0.25
8,FWKL,≤ 0.25
9,QSIQ,≤ 0.25
10,WTEG,≤ 0.25
11,NPYR,≤ 0.25
12,LPYA,≤ 0.25
13,RPYP,≤ 0.25
14,DMSA,≤ 0.25
15,DHIH,≤ 0.25
16,STQL,17.1
17,SFYV,≤ 0.25
18,SFFP,≤ 0.25
19,KKRN,≤ 0.25
20,YMWR,≤ 0.25
